Measured values reported in PubChem BioAssay (NCI).
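Five concentrations, 48 hours, 96-well plates. GI50 marks 50% less growth. TGI: total growth inhibition.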

What follows are molecules tested on NCI-H322M lung (assay: DTP human tumour cell line panel, 48 h).
With Nc1nc(N)c2ncn(CCOC(c3ccccc3)P(=O)(O)O)c2n1 (configuration not stated) the TGI was greater than 100 µM. Molecule COC(=O)CC(C(C(=O)OC)C(=O)OC)N1C(=O)OC(c2ccccc2)C1c1ccccc1 (configuration not stated) has a TGI greater than 100 µM. Work on COC1C=COC2(C)Oc3c(C)c(O)c4c(O)c(c(C5SCCS5)c(O)c4c3C2=O)NC(=O)/C(C)=C\C=CC(C)C(O)C(C)C(O)C(C)C(OC(C)=O)C1C (configuration not stated) yielded a TGI of 36.6 µM. CCN(CC)C(=S)SCC(=O)Nc1nc2c(s1)CCCC2 showed a TGI greater than 100 µM. COC(=O)c1cc(O)c(O)c(O)c1-c1c(O)c(O)c(O)c(SC[C@H](NC(=O)OCc2ccccc2)C(=O)OCc2ccccc2)c1C(=O)OC showed a TGI of 92.4 µM. Molecule O=C1C=C(OCC=C(C(F)(F)F)C(F)(F)F)c2ccccc2C1=O has a GI50 of 2.65 µM and a TGI of 6.34 µM. Work on Cc1nc2sc3c(N)ncnc3c2c(C)c1C yielded a GI50 greater than 25 µM and a TGI greater than 25 µM. With O=C(NCCOCCOCCOCCNC(=O)c1cc2c(o1)C(=O)c1ccccc1C2=O)NC12CC3CC(CC(C3)C1)C2 the GI50 was 1.49 µM and the TGI was 2.94 µM. With O=[N+]([O-])c1cc(N=Nc2c(O)ccc3cc(S(=O)(=O)O)ccc23)c(O)c([N+](=O)[O-])c1 the TGI was greater than 100 µM. In the case of CCOC(=O)/C(C(=S)NCc1ccccc1)=C(/N)N1CCCC1, the TGI is reported as greater than 100 µM. For COc1ccc2c(c1)C(OC)C1c3c(cc4c(c3-2)OCO4)CCN1C (configuration not stated), the TGI was greater than 87.2 µM. Molecule C/C=C/C(=O)[O-].C/C=C/C(=O)[O-].N.N.N.N.[Co+3].[O-][Cl+3]([O-])([O-])[O-] has a GI50 greater than 100 µM and a TGI greater than 100 µM. Nc1ncc(-c2ccc3ncnc(N4CCc5ccc(Cl)cc54)c3c2)cc1C(F)(F)F was tested, and the GI50 was 1.32 µM and the TGI was 14.9 µM. With Clc1cccc(CNc2c3ccccc3nc3ccccc23)c1 the GI50 was 1.93 µM and the TGI was 6.04 µM. Molecule O=C(CCC(=O)Nc1cccc(C(F)(F)F)c1)CC(=O)c1ccc2ccccc2c1 has a TGI greater than 100 µM. Work on COc1c(I)c(OC)c2c(c1I)O[C@@H]1OCC[C@H]21 yielded a TGI greater than 100 µM. In the case of C=CCOCn1cc(F)c(=O)[nH]c1=O, the TGI is reported as greater than 100 µM. CCc1cc2c(O)c(c1)Cc1cc(CC)cc(c1O)Cc1cc(CC)cc(c1O)Cc1cc(CC)cc(c1O)Cc1cc(CC)cc(c1O)Cc1cc(CC)cc(c1O)Cc1cc(CC)cc(c1O)C2 was tested, and the TGI was greater than 100 µM. For COC(=O)c1ccc(C)cc1CC1Cc2cccc(C)c2C1=O (configuration not stated), the TGI was 76.7 µM. With CO[C@@]12C[C@@H](C)[C@]34O[C@H]3C[C@]3(C)O[C@]43CC1=C(C)C(=O)O2 the TGI was greater than 100 µM. CCOC(=O)CSC1NC(C(=O)OC)CC1OC (configuration not stated) gave a TGI greater than 100 µM. Cc1ccc(-c2nc(-c3nccc4ccccc34)oc2-c2ccccc2)cc1 was tested, and the TGI was 65.4 µM. Cn1c2ccccc2c2ccc3c(c21)C(=O)C(c1ccccc1)=CC3=O showed a TGI greater than 100 µM. COc1cc2c3c(n(CCCNCCCNCCN)c(=O)c2cc1OC)-c1cc2c(cc1C3=O)OCO2 was tested, and the GI50 was 71.4 µM and the TGI was greater than 100 µM. COc1ccccc1[As]=[As]c1ccccc1OC (configuration not stated) showed a GI50 of 0.132 µM and a TGI of 0.278 µM. With O=C(CSCC(=O)N/N=C\c1ccc(O)c(O)c1O)N/N=C\c1ccc(O)c(O)c1O the TGI was 41.7 µM. With CC(=O)OCC1OC(NC(=O)N(CCCl)N=O)C(OC(C)=O)C(OC(C)=O)C1OC(C)=O (configuration not stated) the TGI was greater than 100 µM. C=CCCCN1CCCC(C)C1=S (configuration not stated) was tested, and the TGI was greater than 100 µM. CCc1c(CNC2=NCCN2)c(CC)c(CNC2=NCCN2)c(CC)c1CNC1=NCCN1 showed a TGI greater than 100 µM. With O=C(Nc1ccccc1)OC1OC(COC(=O)c2ccccc2)C(OC(=O)c2ccccc2)C1OS(=O)(=O)c1ccc([N+](=O)[O-])cc1 (configuration not stated) the TGI was greater than 100 µM. CC(=O)C1C(=O)C(=O)N(c2ccc([N+](=O)[O-])cc2)C1=O (configuration not stated) was tested, and the TGI was greater than 100 µM. COC(=O)CN1C(=O)C2(C(=O)OC)OC1(c1ccc([N+](=O)[O-])cc1)C1C(=O)N(c3ccccc3)C(=O)C12 (configuration not stated) gave a TGI greater than 100 µM. Molecule c1ccc(-c2n(Cc3ccc4ccccc4c3)c3ccccc3[n+]2Cc2ccc3ccccc3c2)cc1 has a GI50 of 1.2 µM and a TGI of 2.45 µM. For Cn1c(=O)c(Oc2ccc(F)cc2F)cc2cnc(N[C@@H]3CCOC3)nc21, the GI50 was greater than 25 µM and the TGI was greater than 25 µM. With O=C(N=c1nc(NC(=O)c2ccccc2)ss1)c1ccccc1 the TGI was greater than 100 µM. C[P+](c1ccccc1)(c1ccc(Cl)cc1)c1ccc(Cl)cc1 showed a TGI of 63.9 µM. With CSc1ccc(NC(=O)C2c3[nH]c4ccccc4c3C3CCC(C(C)(C)C)CC3C2C(=O)O)cc1 (configuration not stated) the TGI was 64.8 µM. O=C(Nc1cc(Cl)ccc1O)c1cccc(Nc2ccnc(C(F)(F)F)c2)c1 gave a GI50 of 4.27 µM and a TGI of 32.8 µM. Molecule COc1ccc(C(=O)c2cc3c(N)c(C(=O)Nc4cccc(Br)c4C)sc3nc2C)cc1 has a GI50 of 0.382 µM and a TGI greater than 100 µM. With CCCCCCCCCCCCCCCC(=O)OCCOCCOCCOCCOCCOC(=O)CCCCCCCCCCCCCCC the TGI was greater than 100 µM. Molecule CCn1c(=O)c(C(=O)O)c(Cl)c2cc3c(cc21)OCO3 has a TGI greater than 100 µM. CCC(C)C1=C(O)[N+]2([O-])Oc3ccc(C4=C(O)C(=O)C(c5ccc(O)cc5)=C(O)C4=O)cc3OC2(C(C)CC)C(=O)N1O (configuration not stated) showed a GI50 of 37.8 µM and a TGI greater than 100 µM. For CC1=NN2C(c3ccc([N+](=O)[O-])cc3)=CSC2=NC(C)(C)C1, the TGI was greater than 100 µM. CCCCCCCCCCCCN=C(N)c1ccc(N2CCN(c3ccc(C(N)=NCCCCCCCCCCCC)cc3)CC2)cc1 was tested, and the GI50 was 10.6 µM and the TGI was 28.7 µM. Molecule Nc1nc(Cl)c2ncn(Cc3cccc(CCl)c3)c2n1 has a TGI of 23.5 µM. CCC/C(Cl)=N/OC(NC(=O)OCC)(C(F)(F)F)C(F)(F)F gave a TGI greater than 100 µM. Molecule NCCCNc1nc2ccccc2c2c(=O)c3cccc(Cl)c3sc12 has a GI50 of 1.46 µM and a TGI of 2.84 µM.
